Read counts are not given, so values of variants with three or more changes are uncertain.
B1: LINE1-full (parent)
chain: UACGUAGGUGGUUUUCCCCUGAUAGUGCUAAGGGGGCCUGGAAGUUUGGACUGGGCAGAGCUCAACACAGCGUGGCAAAGUGGCUGUGGCUAGACUGCCUCUCUGGAUUCCUCGUCACUCAGCAGGGCAUCUCUGAGAGAAAUGCC

Variants of: B1
Assay: self-cleavage, relative activity (ratio to wild type); higher = more cleavage; in vitro, sequencing; the parent is a self-cleaving ribozyme

| Variant | self-cleavage |
| --- | --- |
| UACGUAGGUGGCUUACCCCUGAUAGUGCUAAGGGGGCCUGGAAGUUUGGACUGGGCAGAGCUCAACACAGCGCGGCAAAGUGGCUGUGGCUAGACUGCCUCUCUGGAUUCCUCGUCACUCUGCAGGGCAUCUCUGAGAGAGAUGCC [U12C U15A U73C A121U A141G] | 0 |
| UACGUAGGUGGUUUUCCCCUGAUAGUGCUAAGGGGGCCUGGAAAUUUGGACUGGGCAGAGCUCAACACAGCGUGGCAAAUUGGCUGUGGCUAGACUGCCUCUCUGGAUUCCUCGUCAAUCAGCAGGGCAUCUCUGAGAGAAAUGCC [G44A G80U C118A] | 1.69 |
| UACGUAGGUGGUUUUCCCCUGAUAGUGCCAAGGGGGCCUGGAAGUUCGGACUGGGCAGAGCUCAACACGGCGUGGCAAAGUGGCUGAGGCUAGACUGCCUCUCUGGAUUCCUCGUCACUCAGCAGGGCAUCCCAGAGAGAAAUGCC [U29C U47C A69G U87A U132C U134A] | 0.77 |
| UACGUAGGUGGUUUUCCCCUGAUAGUGCUAAGGGGACCUGGAAGUUAGGACUGGGCAGAGCUCAACACAGCGUGGCAAAGUGGCCGUGGCUAGACUGCCUCUCUGGAUCCCUCGUCACUCAGCAGGGCAUCUCUGAGAGAAAUGCC [G36A U47A U85C U109C] | 0.05 |
| UACGUAGGUGGUUUUCCCCAGUUGGUGCUAAGGGGGCCUGGAAGUUUGGACUGGGCAGAGAUCGACACAGCGUGGCAAAGUGGCUGUGGCUAGACUGCCUCUCUGGAUUCCUCGUCGCUCAGCAGGGCAUCUCUGAGAGAGGUGCC [U20A A22U A24G C61A A64G A117G A141G A142G] | 0.15 |
| UACGUAGGUGGUUUUCCCCGGAUAGUGCUAAGGGGGCCUGGAAGUUUGGACUGGGCAGAGCUCAACACAGCGAGGCAAAGUGGCUGUGGCUAGACUGCCUCUCUGGAUUCCUCGUCACUCAGCAGGGCAUCUCUGAGAGAACUGCC [U20G U73A A142C] | 1.13 |
| UACGUAGGUGGUUUUCCCCUGAUACUGCUAAGGGGGCCUGGAAGUUUGGACUGGGCAGAGCUCUACACAGCGCGGCAAAGUGGCUGUGGCUAGACUGCCUCUCUGGAUUCCUCGUCACUCAGCAGGGCAUCUCUGAGAGAAAUGCC [G25C A64U U73C] | 0.56 |
| UACGUAGGCGGUUUUCCCCUGAUAGUGCUAAGGGGGCCUGGAGGUUUGGACUGGGCAGAGCUCAACACAGCGUGGCAAAGUGGCUGUGGCUAGACUGCCUCACUGGAUUCCUCGUCACUCAGCAGGGCAUCUCUGAGAGAAAUGCC [U9C A43G U102A] | 1.39 |
| UACGUAGGUGGUUUUCCCCUGAUAGUGCUAAGGGGGCCUGGAAGUUUGGACUGGGCAGGGCCCAACACAGCGUGGCAAAGUGGCUGUGGCUAGACCGCCUCUCUGGAUUCCUCGUCACUCAGCAGGGCACCUCUGAGAGAAAUGCC [A59G U62C U96C U130C] | 0 |
| UACGUAGGUGGUUUUCCCCUGAUAGUGCUAAGGGGGCCUGGAAGUUUGGACUGGGCAGAGCUCAACAUAGCGUGGCGAAGUGGCUGUGGCUAGACUGCCUCUCUGGUUUCCUCGUCGCUCAGCUGGGCAUCUCUGAGAGAAAUGCC [C68U A77G A107U A117G A124U] | 0.38 |
| UACGUAGGUGGUUCUCCCCUGAUAGUGCUAAGGGGGCCUGGAAGUUUGGGCUGGGCAGAGCUCAACGCAGCGUGGCAAAGUGGCUGUGGCUAGUCUGCCUCUCUGGAUUCCUCGUCACUCAGCAGGGCAUCUCUGAGAGAAAUGCC [U14C A50G A67G A94U] | 0.48 |
| CACGUAGGUGGUUUUCCCCUGAUAGUUCUAAGGGGGCCUGGAAGUUUGGACUGGGCAGAGCUCAACACAGCGUGGCUAAGUGGCUGUGGCUAGACUGCCCCUCUGGAUUCCUCGUCACUCAGCGGGGCAUCUCUGAGAGAAAUGCC [U1C G27U A77U U100C A124G] | 0.24 |
| UACGUAGGUGGUCUUCCCCUGAUAGUGCUAAGGGGGCCUGGAAGUUUGGACUGGGCAGAGCUCAACACAGCGUGGCGAAGUGGCUGUGGCUAGACUGCCUCUCUGGAUUCCUCGUCACUCAGCAGGGCACCUCUGAGAGAAAUGCC [U13C A77G U130C] | 1.84 |
| UACGUAGGUGGCUUUCCCCUGAUAGUGCUAAGGGGGCCUGGAAGUUUGGACUGGGCAGAGCUCAACACAGCGUGGCAAAGUGGCUGUGGCUAGACUGCCUCUCAGGAUUCCUCGUCACUCAGCAGGGCAUCUCUGAGAGAGAUGCC [U12C U104A A141G] | 1.16 |
| UACGUAGGUGGUUUUCCCCUGAUAGUGCUAAGGGGGCCUGGAAGUUUGGACUGGGCAGAGCUCAACACAGCGUGGCAAAGUGGCUGUGGCUAGACUGCCUCUCUGGAUUCCUCGUCACUUAGCGGGGCAUCUCUGAGAGAAACGCC [C120U A124G U143C] | 1.29 |
| UACGUAGGUGGUUUUCCCCCGAUAGUGCUAAGGGGGCCUGGAAGUUUGGACUGGGCAGAGCUCAACACAGCGUGGCAAAGUGGCUGUGGCUAGACUGCCUCUCUGGAUUCCUCGUCUCACAGCAGGGCAUCUCUGAGAGAAAUGCC [U20C A117U U119A] | 1.75 |
| UACGUAGGUGGUUUUCCCCUGAUAGUGCUAAGGGGGCCUGGAAGUUUGGACUGGGCAGAGCUCAACACAGCGUGGCAAAGUGGCUGUGGCUAGACUGCCUCCCUGGAUUCCACGUCGCUCAGCAGGGCAUCUCUGAGAGAAAUGCC [U102C U112A A117G] | 0 |
| UACGUAGGUGGUUUUCCCCUGAUAGUGCUAAGGGGGCCAGGAAGCUUGGACUGGGCAGAGCUCAACACAGCGUGGCAAAGUGGCUGUGGCUAGACUGCCUCUCUGGAUUCCUCGUCACUCAGCAGGGCAUCCCUGAGAGAAAUGCC [U39A U45C U132C] | 1.24 |
| UACGUAGGUGGUUUUCCCCUGAUAGUGCUAAGGUGGCCUGGAAGUUUGGACUGGGCAGAGCUCAACACAGCGUGGCAAAGGGGCUGUGACUAGACUGCCUCUCUGGAUUCCUCGUCACUCAGCAGGGCAUCUCUGAGAGAAAUGCC [G34U U81G G89A] | 0.04 |

From the RNAGym collection of RNA variant scans (doi:10.7554/elife.90254)
